Reference: the supplement of paper PMC3334620
Over roughly 33,000 sequences, “E-score (-0.5 to 0.5)” has its median near -0.036; the highest 2% begin near 0.37. The list shows a part of the results.

biological target: T1, Yer064c (UniProt P40041); assay: PBM E-score (8-mer binding enrichment) (E-score (-0.5 to 0.5)); higher = stronger / more preferred TF binding; most listed sequences are background and not binding sites; settings: protein concentration: 200 nM; construct: GST-full length
T1 sequence: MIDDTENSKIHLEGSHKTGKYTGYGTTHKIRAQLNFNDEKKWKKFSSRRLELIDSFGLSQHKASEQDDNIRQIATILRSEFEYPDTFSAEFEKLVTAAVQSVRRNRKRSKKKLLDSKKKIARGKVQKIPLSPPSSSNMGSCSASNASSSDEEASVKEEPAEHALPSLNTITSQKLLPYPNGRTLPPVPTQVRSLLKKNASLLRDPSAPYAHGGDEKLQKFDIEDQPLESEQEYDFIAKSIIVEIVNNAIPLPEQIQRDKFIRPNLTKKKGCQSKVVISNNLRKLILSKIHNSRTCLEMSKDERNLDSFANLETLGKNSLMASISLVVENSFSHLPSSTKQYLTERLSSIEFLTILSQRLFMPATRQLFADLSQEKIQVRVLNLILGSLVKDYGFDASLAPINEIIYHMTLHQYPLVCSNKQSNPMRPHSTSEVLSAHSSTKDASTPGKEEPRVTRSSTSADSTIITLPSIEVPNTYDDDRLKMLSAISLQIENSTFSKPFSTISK
Method in brief: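 PURExpress in vitro transcription/translation supplied GST-tagged yeast transcription factors, either full-length or DNA-binding domain. Applied at about 100-200 nM to universal all-10-mer Agilent arrays double-stranded by primer extension, the bound protein was detected with fluorescent anti-GST. E-scores, modified Wilcoxon-Mann-Whitney statistics, were given by the Universal PBM Analysis Suite to ungapped eight-base words pooled with their reverse complements after masliner normalisation.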

Sequence	PBM E-score
GGAGTGCC	-0.362
CATGCAGC	-0.068
AGAGAGGG	-0.162
AAAGCTGC	-0.134
ATGCCTCG	-0.0563
ACCGGGCA	-0.289
AAATGTCT	0.107
AATGAGCC	0.162
GTCAATCA	0.389
CCAAGATC	0.0609
ATCTTCCC	-0.067
AACCGATG	0.0056
ACGATGAC	0.333
CGCGTCCG	-0.00585
GCCCGACA	-0.192
ACTGCACG	-0.049
CGCTCGTC	-0.285
GATGATTA	0.47
ACGTTTCC	-0.197
CGTCCGCA	-0.0638
CGCTCCAA	-0.267
CGGAGTTA	-0.0037
GTTCTAAA	-0.0695
CCCCGAGA	-0.181
AACACTTG	0.143

Sequence	PBM E-score
GCCTACAA	-0.0831
TCGAGGAA	-0.0713
GAGGAGTA	0.00665
GCAACGTA	-0.269
CACACTTA	0.0285
AGGCCTGA	0.0122
AGTGGCTG	0.00091
CGATCCAA	-0.118
CTATGTAA	0.121
ATCGAATG	0.0236
AGCACTAT	-0.138
CTAAAAGA	0.287
GCTTATCA	-0.189
ACAACATC	-0.143
TATATTGA	0.167
ATCCGATC	0.00143
AATAACGC	-0.0376
CTCGTGGC	-0.178
CCCCGATA	-0.12
GGTGAACC	0.123
CCCTTAAG	-0.0521
AGTCTATC	0.182
AACGGCCT	-0.421
CCTAAGTA	0.137
AGTTAGAA	0.0342

Sequence	PBM E-score
CCGGTGTA	-0.162
GGCTAACA	0.101
ACTCGTAC	0.186
ATTAACTA	0.169
CCAACTGG	-0.185
ATACCGAC	-0.0361
ATTAATGG	0.0338
ATATACCA	-0.0262
GCTGAGTA	0.212
CCATATAG	0.0187
TAGGTGGA	0.0243
GGATCATA	0.0464
AAATATAC	0.0617
GTTCTCCA	-0.256
AACTAGTT	-0.0694
CGTATGGA	-0.0542
CGACCAAA	-0.0829
CAGACGAC	0.137
ACGTTAGA	0.111
CAAACGCC	-0.145
AAGTCACA	0.414
GGTTCCCA	-0.0406
GGAATGAC	0.182
CGCCGTTA	0.173
ATAACCAC	0.0837

Sequence	PBM E-score
GTCACGAC	0.324
CCCAACAG	-0.0928
ATTGGAGC	0.046
AAATCAGT	0.178
AGTGATAC	0.0829
ATGTCTAA	0.262
GAACAGGA	-0.165
CCTCCACA	-0.119
CAAGTTGC	-0.184
GTGCCTTA	-0.0701
GTTTAACA	0.0707
AGTACCTC	-0.00168
GGCTTCCC	-0.291
AGGTCGAT	0.0253
GATACGAC	0.192
GATCTCCA	-0.133
ACTCTTAG	0.198
GAACCAAC	-0.0543
GATATCGA	-0.0649
ATCCGCCA	0.151
ACGTTCAT	-0.206
GGGCCAGA	-0.241
GACACCCA	0.093
AAGAATCT	0.0452
AAACCGTC	-0.0577

Sequence	PBM E-score
ACGTAAAC	-0.208
TACTTCGA	0.147
AATGCTAT	0.00613
GGGCTAGA	-0.15
ACTCCTCC	0.0562
AGGCATGA	0.0451
TCGAAAAA	0.0947
AAGCCTCA	-0.263
TCTCCTAA	0.0806
AACAGCGC	-0.0819
ACAACTAG	-0.0926
GGTTCCAA	-0.00231
CCGAGCGA	-0.0564
CAAATGCC	-0.188
AATAGGCT	-0.0339
AAGACCCG	-0.0897
GGGATAAC	-0.184
CTAATTGC	0.115
CAGCGCCC	-0.151
GTCGGCAA	0.0157
CCTGTTGC	-0.287
GGGTCTCA	-0.137
AGCTGCAA	-0.175
ACCGACTA	0.184
GGGTGGAC	0.0463

Sequence	PBM E-score
GACCCCGA	-0.0887
CGATTTGA	0.23
GAACTCCC	-0.00449
ACTTTATC	0.232
GGAGCTTA	-0.108
GGGCCTCA	-0.346
AATAGGTC	-0.129
ACCGATTA	-0.071
CTGATTGA	0.305
AATAGCGA	0.0521
AAACCACT	-0.0202
GCCCGGAC	-0.22
CCTCCGAA	-0.284
GAACAGGC	-0.161
AATACCTG	-0.293
ACTCGCTA	0.213
GCACTTCC	-0.318
AATGAGGC	-0.245
GCAATCAC	0.287
ATTCCCAC	0.0834
AAAGGCGG	-0.124
TAGGCAAA	-0.0921
ACATTTAA	0.114
ACGATATG	0.0671
GCCCGCAC	-0.231

Sequence	PBM E-score
ATGTACGC	-0.193
CTGACTCC	0.46
GCACGGTA	0.0169
ACGAGAAC	0.104
CTCTTAAC	0.0719
ACCTGATC	-0.0706
AACGCTTG	-0.106
TATCAAGA	0.164
ACAGAACC	-0.146
TGTATAAA	-0.0876
AAACCCTC	-0.203
CAGCAACC	-0.0227
TACTATAA	0.0586
CGAGAGCG	-0.141
ACTCGGAG	0.215
CAGGCGCG	-0.114
CCGCTCCG	-0.0895
AACGATGA	0.231
GTTTACGA	0.128
ACCCATAT	0.216
AGTTCCTA	0.091
ACAGAAGC	-0.0224
GCCATGGC	-0.288
CTCCCAGA	-0.235
ATACGAAC	-0.00917

Sequence	PBM E-score
GAGGGGGA	-0.285
AGCACCCA	-0.143
GCCTGGGA	-0.343
ACTGATCG	0.11
ACGGCAGA	-0.293
CATCGAAC	-0.125
AAACTACA	0.0205
AACTTAGT	0.283
ATCATGTG	0.231
CGGGATAC	-0.137
ATAATGCG	-0.12
GGCTCCCC	-0.199
AATGAGAA	0.00576
CCTGTACC	-0.204
CCGACAAC	-0.105
CCTGTCAC	0.0707
AACCGTTC	-0.168
AGGTGGGC	-0.201
ACCCACCT	-0.0352
AGTCGAAT	0.141
CCCGAGGG	-0.0969
GTGAAGTA	-0.0979
ATTTCGTC	-0.0276
TATAACAA	0.0933
CGGGGAGC	-0.176

Sequence	PBM E-score
ATTGCACA	-0.0544
CGCACGAC	0.0323
GAGAAGTA	0.0142
ATAAGCGA	-0.0152
ACGCACAC	0.155
AGTGTGAT	0.299
CGTCACAG	-0.031
ATGCCCAA	-0.318
ACGCGATC	-0.04
GGCTTCAC	-0.226
GCCGATGA	0.217
CGAGGACA	-0.147
AGTCTGAT	0.302
GAGACACC	0.266
CATATAGA	0.193
ATCTGGTG	-0.0282
CTAAACGA	0.0631
CTTCTCGA	-0.124
GACCTAAC	0.0736
AAGTGTGT	0.166
GGAAAGGA	0.0585
AACGCCGG	-0.229
CGTCTATA	-0.12
ACAGTAGT	0.207
GCGTAGAA	-0.12

Sequence	PBM E-score
CACGACCC	-0.158
ACTGTGTG	0.0826
ATTTTTAC	-0.0508
AACCTAGT	0.0495
AGCTGCTG	0.0996
ATGTTGTA	-0.0488
CCGCCGGC	-0.0629
CCGTCAGA	-0.151
ACACAAAA	0.0955
ACTGAAAC	0.172
CTTTCCCC	-0.153
ATCTGCTA	0.00228
CTCGCGCA	-0.0489
ACACGCCT	-0.172
AATGCGCG	-0.0908
GTGGTAGA	-0.194
CAAGGCGG	-0.0568
AGAAGCTA	0.131
ACGTTGAC	0.134
GTCCCCAA	-0.133
GCAGGTAA	-0.106
AATGGCAC	-0.231
ATACCCAA	0.012
CCGTCGAC	-0.0403
CCCCAGGA	0.0256

Sequence	PBM E-score
GCTGATAC	-0.0879
AATGACCG	-0.203
ACCGGTGG	-0.104
GGACTCAC	0.43
CCACAGAC	-0.0479
GAGGTCAC	0.0361
CGACCCCC	-0.423
ATGAACCG	-0.0969
ACGAAAGC	-0.156
AATCGTCG	0.118
ACCTTAAG	0.0801
CCCCGAAA	-0.236
TAATCACA	0.419
ACTGTATA	0.0459
CTAGCGTC	-0.219
AGTGATCG	-0.108
ATGAACGG	-0.0903
GTATAGAA	-0.0318
ACCTCAAC	0.111
CCATCAGA	-0.145
CAAAGAAC	-0.0891
CCCTCAAG	-0.0461
AGGATCAC	-0.0392
CTGACGTA	-0.148
CTCGGTGA	0.137

Sequence	PBM E-score
ACCAAACA	0.00432
CCCTGACC	-0.0172
CACCACAG	-0.0545
GAGAGATA	-0.0127
CCTACAAG	-0.114
ATGATAGA	-0.106
CGACTCTA	0.343
ACAGCCCC	-0.294
CTCCCGAC	0.0378
AAGGCTTC	-0.227
GCGCAGAC	-0.148
CCAGAAGA	0.0953
CCTTTCAA	-0.019
ACGCGATG	-0.154
CGGTTCAG	-0.212
CAGAAATG	-0.0347
GGGTGAGA	0.00875
AAGTCGCG	0.211
AACGAGCG	-0.262
GATGCTCA	-0.049
AATCTGGC	-0.157
ATTCTGCG	-0.0116
CTGCTTTA	0.0882
CACCTGAA	-0.11
GGACAGTA	0.0279

Sequence	PBM E-score
CTACCGGA	0.109
CACCTATC	-0.105
TCGGTTCA	0.0658
GCTCGACC	-0.174
TAAAATAA	0.104
CGGACTTC	-0.0346
ACAGTAAT	0.171
CTGGTGCC	-0.348
CGTTGAGC	-0.0882
ACGCCCGT	-0.165
TGGACGAA	-0.0268
ATACCATA	0.0728
CATTAAGG	0.0276
CGACACCG	-0.0725
AGCTATGG	-0.0301
AAATAACT	0.124
TACGTCCA	-0.306
ATCTGTAC	0.0286
CATGAAAC	-0.0319
ACGGCGAA	0.0962
GTCGACGA	0.0812
CCCTGGTA	-0.174
CAACCTAA	-0.0182
GAAAGGCA	-0.145
GGAGTGGA	-0.284

Sequence	PBM E-score
TAGGGCAA	-0.161
CAGTCATA	0.448
GATCGACC	-0.226
ACCCGACC	-0.0491
CCGCTTGA	-0.00042
GCGTGGCA	-0.187
AACAGGCG	-0.131
ATAATGTA	0.0267
CAGTGTTA	-0.0938
CAGCTATG	0.0402
CATGGACA	-0.0537
GTCGCGCA	0.276
CTACCCAA	-0.0352
CATGTCCA	-0.0946
CTACAAAG	0.114
GATCAGAA	0.00565
AGTGACAG	0.00347
ATACCCCG	-0.181
CATTCAGC	-0.138
